{"source": "the supplement of paper PMC10126150", "note": "Sequences with one replicate were seen in a single cluster, so their values are uncertain.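 Note: ATP exposure 15 min at 22 °C before imaging.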", "data": [{"test_system": "ATP", "assay": "switch fluorescence ratio, 500 uM ATP over buffer (Cy3 cluster intensity, sum of 5 cycles each) (fold (ratio)); higher = stronger signal-on switching upon ATP binding; sequences stand for … in TCGTCGGCAGCGTCAGATGTGTATAAGAGACAGTTTTTTTTTTTTTTTTTTTTTTTTT…TC", "details": "aptamer strand: ATP DNA aptamer (quencher-CACCTGGGGGAGTATTGCGGAGGAAGG + anchor), 100 nM annealed; ATP concentration: 500 uM; one replicate", "outline": "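For every switch-domain sequence, the fluorescence ratio is the mean of per-cluster values, each being summed target-cycle Cy3 intensity over summed buffer-cycle Cy3 intensity. Clusters outside 100-1000 RFU were excluded. On a modified Illumina MiSeq flow-cell, the Cy3-labelled switching-strand clusters were annealed to 100 nM quencher-labelled ATP aptamer, imaged in selection buffer and then after 15 min with 500 uM ATP at 22 °C. Five such cycles were run, with NaOH stripping and re-annealing between them.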", "values": [{"sequence": "TAGTTGAGTC", "switch fluorescence ratio": 1}, {"sequence": "TAGTTTCGAC", "switch fluorescence ratio": 0.993}, {"sequence": "TAGTTTGGAG", "switch fluorescence ratio": 0.998}, {"sequence": "TAGTTTGTGC", "switch fluorescence ratio": 1.04}, {"sequence": "TAGTTTTAAT", "switch fluorescence ratio": 0.988}, {"sequence": "TAGTTTTCGA", "switch fluorescence ratio": 1.02}, {"sequence": "TATAAAAAGA", "switch fluorescence ratio": 1.02}, {"sequence": "TATAAACTGG", "switch fluorescence ratio": 1.07}, {"sequence": "TATAAACTTA", "switch fluorescence ratio": 0.974}, {"sequence": "TATAAATACC", "switch fluorescence ratio": 1.42}, {"sequence": "TATAACAAAG", "switch fluorescence ratio": 1.01}, {"sequence": "TATAACAGTT", "switch fluorescence ratio": 1.17}, {"sequence": "TATAACCTTC", "switch fluorescence ratio": 2.32}, {"sequence": "TATAAGGTCA", "switch fluorescence ratio": 0.993}, {"sequence": "TATAAGTGC", "switch fluorescence ratio": 1.02}, {"sequence": "TATAAGTTGG", "switch fluorescence ratio": 0.983}, {"sequence": "TATAATTCCG", "switch fluorescence ratio": 0.989}, {"sequence": "TATAATTGTA", "switch fluorescence ratio": 0.998}, {"sequence": "TATACCGTCC", "switch fluorescence ratio": 1.97}, {"sequence": "TATACGAAGG", "switch fluorescence ratio": 1.01}, {"sequence": "TATACTCGCC", "switch fluorescence ratio": 1.75}, {"sequence": "TATACTGACA", "switch fluorescence ratio": 1.16}, {"sequence": "TATACTGACG", "switch fluorescence ratio": 1.18}, {"sequence": "TATACTGCCG", "switch fluorescence ratio": 0.999}, {"sequence": "TATACTGTT", "switch fluorescence ratio": 0.975}, {"sequence": "TATACTTTA", "switch fluorescence ratio": 1.04}, {"sequence": "TATAGAAGTG", "switch fluorescence ratio": 0.993}, {"sequence": "TATAGCACAT", "switch fluorescence ratio": 1.13}, {"sequence": "TATAGCGA", "switch fluorescence ratio": 1.04}, {"sequence": "TATAGCGGGC", "switch fluorescence ratio": 1.04}, {"sequence": "TATAGCTAGG", "switch fluorescence ratio": 1.03}, {"sequence": "TATAGCTCG", "switch fluorescence ratio": 1.02}, {"sequence": "TATAGGAATT", "switch fluorescence ratio": 1.01}, {"sequence": "TATAGGCAAG", "switch fluorescence ratio": 0.994}, {"sequence": "TATAGTCCGG", "switch fluorescence ratio": 0.998}, {"sequence": "TATAGTGA", "switch fluorescence ratio": 0.998}, {"sequence": "TATAGTGCTG", "switch fluorescence ratio": 0.972}, {"sequence": "TATATAGATT", "switch fluorescence ratio": 1.01}, {"sequence": "TATATAGGAC", "switch fluorescence ratio": 1.03}, {"sequence": "TATATATCAC", "switch fluorescence ratio": 1.03}, {"sequence": "TATATCAAAG", "switch fluorescence ratio": 1}, {"sequence": "TATATCACGG", "switch fluorescence ratio": 0.992}, {"sequence": "TATATGATAT", "switch fluorescence ratio": 0.979}, {"sequence": "TATATGGGG", "switch fluorescence ratio": 0.976}, {"sequence": "TATATGGTCT", "switch fluorescence ratio": 0.99}, {"sequence": "TATATTACGG", "switch fluorescence ratio": 1.06}, {"sequence": "TATATTAGGA", "switch fluorescence ratio": 0.986}, {"sequence": "TATATTCTA", "switch fluorescence ratio": 0.985}, {"sequence": "TATATTGCGG", "switch fluorescence ratio": 1.02}, {"sequence": "TATCAAGATT", "switch fluorescence ratio": 1.03}, {"sequence": "TATCACGTTG", "switch fluorescence ratio": 1.02}, {"sequence": "TATCAGGCC", "switch fluorescence ratio": 1.02}, {"sequence": "TATCAGGGAC", "switch fluorescence ratio": 1.02}, {"sequence": "TATCATAGTG", "switch fluorescence ratio": 1.01}, {"sequence": "TATCCAAATG", "switch fluorescence ratio": 1.08}, {"sequence": "TATCCCTAGA", "switch fluorescence ratio": 0.985}, {"sequence": "TATCCCTGTG", "switch fluorescence ratio": 1.09}, {"sequence": "TATCCGTCCG", "switch fluorescence ratio": 1.05}, {"sequence": "TATCCTGTTG", "switch fluorescence ratio": 1}, {"sequence": "TATCCTTTT", "switch fluorescence ratio": 1}, {"sequence": "TATCGAAAGG", "switch fluorescence ratio": 1.42}, {"sequence": "TATCGACGCT", "switch fluorescence ratio": 1.35}, {"sequence": "TATCGAGCTG", "switch fluorescence ratio": 1}, {"sequence": "TATCGCCTCA", "switch fluorescence ratio": 1.01}, {"sequence": "TATCGCGATT", "switch fluorescence ratio": 1.02}, {"sequence": "TATCGGGCAG", "switch fluorescence ratio": 1.02}, {"sequence": "TATCTACTTT", "switch fluorescence ratio": 1.02}, {"sequence": "TATCTCATAT", "switch fluorescence ratio": 0.975}, {"sequence": "TATCTCGTG", "switch fluorescence ratio": 1.02}, {"sequence": "TATCTGGGAA", "switch fluorescence ratio": 1.01}, {"sequence": "TATCTGTCTA", "switch fluorescence ratio": 0.974}, {"sequence": "TATCTTAGTG", "switch fluorescence ratio": 0.984}, {"sequence": "TATGAAACAG", "switch fluorescence ratio": 0.983}, {"sequence": "TATGAAGGGT", "switch fluorescence ratio": 0.991}, {"sequence": "TATGACACTG", "switch fluorescence ratio": 0.983}, {"sequence": "TATGACCGAC", "switch fluorescence ratio": 1.18}, {"sequence": "TATGACGATT", "switch fluorescence ratio": 0.976}, {"sequence": "TATGACGGGT", "switch fluorescence ratio": 1.08}, {"sequence": "TATGAGTTCA", "switch fluorescence ratio": 0.981}, {"sequence": "TATGATAGGG", "switch fluorescence ratio": 0.997}, {"sequence": "TATGATGCCG", "switch fluorescence ratio": 0.967}, {"sequence": "TATGATGGAG", "switch fluorescence ratio": 1.04}, {"sequence": "TATGATGTAT", "switch fluorescence ratio": 1.01}, {"sequence": "TATGATTTCG", "switch fluorescence ratio": 0.969}, {"sequence": "TATGATTTTT", "switch fluorescence ratio": 1.04}, {"sequence": "TATGCAGCCT", "switch fluorescence ratio": 1.01}, {"sequence": "TATGCAGGAG", "switch fluorescence ratio": 1.03}, {"sequence": "TATGCATTCG", "switch fluorescence ratio": 0.96}, {"sequence": "TATGCCGGT", "switch fluorescence ratio": 0.998}, {"sequence": "TATGCCTGTA", "switch fluorescence ratio": 1.09}, {"sequence": "TATGCTACCG", "switch fluorescence ratio": 1.05}, {"sequence": "TATGCTAGAC", "switch fluorescence ratio": 1.43}, {"sequence": "TATGCTTCAG", "switch fluorescence ratio": 0.969}, {"sequence": "TATGCTTCTA", "switch fluorescence ratio": 0.986}, {"sequence": "TATGCTTCTC", "switch fluorescence ratio": 0.968}, {"sequence": "TATGCTTCTT", "switch fluorescence ratio": 1}, {"sequence": "TATGGACGCT", "switch fluorescence ratio": 1.16}, {"sequence": "TATGGAGCTA", "switch fluorescence ratio": 1.21}, {"sequence": "TATGGCTG", "switch fluorescence ratio": 0.997}, {"sequence": "TATGGCTTGT", "switch fluorescence ratio": 0.984}, {"sequence": "TATGGGATCC", "switch fluorescence ratio": 1}, {"sequence": "TATGGGCGAA", "switch fluorescence ratio": 0.971}, {"sequence": "TATGGGTATA", "switch fluorescence ratio": 1.01}, {"sequence": "TATGGGTGC", "switch fluorescence ratio": 1.07}, {"sequence": "TATGGGTTGC", "switch fluorescence ratio": 0.942}, {"sequence": "TATGGTAATG", "switch fluorescence ratio": 0.986}, {"sequence": "TATGTAAAT", "switch fluorescence ratio": 0.998}, {"sequence": "TATGTAAGCC", "switch fluorescence ratio": 0.969}, {"sequence": "TATGTAAGTG", "switch fluorescence ratio": 1.01}, {"sequence": "TATGTAGACT", "switch fluorescence ratio": 0.989}, {"sequence": "TATGTAGGCC", "switch fluorescence ratio": 1.39}, {"sequence": "TATGTGAATA", "switch fluorescence ratio": 0.97}, {"sequence": "TATGTGACGG", "switch fluorescence ratio": 0.982}, {"sequence": "TATGTGATAA", "switch fluorescence ratio": 0.986}, {"sequence": "TATGTGGAG", "switch fluorescence ratio": 0.996}, {"sequence": "TATGTTACT", "switch fluorescence ratio": 1.02}, {"sequence": "TATTAACT", "switch fluorescence ratio": 1.01}, {"sequence": "TATTAAGCTC", "switch fluorescence ratio": 0.977}, {"sequence": "TATTAATACG", "switch fluorescence ratio": 1.01}, {"sequence": "TATTACATAT", "switch fluorescence ratio": 1.06}, {"sequence": "TATTACTATA", "switch fluorescence ratio": 0.989}, {"sequence": "TATTAGGTCA", "switch fluorescence ratio": 1.01}, {"sequence": "TATTAGTCA", "switch fluorescence ratio": 0.995}, {"sequence": "TATTAGTTCA", "switch fluorescence ratio": 0.991}, {"sequence": "TATTATAGCC", "switch fluorescence ratio": 1.03}, {"sequence": "TATTATGCCT", "switch fluorescence ratio": 1.04}, {"sequence": "TATTCCAGAG", "switch fluorescence ratio": 1.06}, {"sequence": "TATTCCATTT", "switch fluorescence ratio": 1.04}, {"sequence": "TATTCCCATT", "switch fluorescence ratio": 1.01}, {"sequence": "TATTCCCGAT", "switch fluorescence ratio": 1.02}, {"sequence": "TATTCGACTG", "switch fluorescence ratio": 0.858}, {"sequence": "TATTCGAGT", "switch fluorescence ratio": 0.978}, {"sequence": "TATTCGGGTT", "switch fluorescence ratio": 0.921}, {"sequence": "TATTCGGTAC", "switch fluorescence ratio": 1.17}, {"sequence": "TATTCTGTCT", "switch fluorescence ratio": 1.02}, {"sequence": "TATTGACATC", "switch fluorescence ratio": 1.05}, {"sequence": "TATTGACGCT", "switch fluorescence ratio": 1.02}, {"sequence": "TATTGACGG", "switch fluorescence ratio": 1.04}, {"sequence": "TATTGAGGCG", "switch fluorescence ratio": 0.986}, {"sequence": "TATTGAGTTC", "switch fluorescence ratio": 1}, {"sequence": "TATTGCAGGG", "switch fluorescence ratio": 1}, {"sequence": "TATTGCCTAG", "switch fluorescence ratio": 0.957}, {"sequence": "TATTGCGCTG", "switch fluorescence ratio": 0.959}, {"sequence": "TATTGCTAAG", "switch fluorescence ratio": 1.01}, {"sequence": "TATTGGATTC", "switch fluorescence ratio": 0.99}, {"sequence": "TATTGGGGTA", "switch fluorescence ratio": 1.02}, {"sequence": "TATTGGTAAG", "switch fluorescence ratio": 1.02}, {"sequence": "TATTGGTACA", "switch fluorescence ratio": 0.984}, {"sequence": "TATTGGTACG", "switch fluorescence ratio": 1.01}, {"sequence": "TATTGTAGAC", "switch fluorescence ratio": 0.928}, {"sequence": "TATTGTATTA", "switch fluorescence ratio": 1.02}, {"sequence": "TATTGTCGTA", "switch fluorescence ratio": 1.01}, {"sequence": "TATTTAAACA", "switch fluorescence ratio": 1.05}, {"sequence": "TATTTCAGAC", "switch fluorescence ratio": 1.02}]}]}
